Laboratory results reported in publication PMC4336329 (PLoS ONE, 2015).
The whole screen tested about 310,000 compounds, of which about 2,200 (0.71%) showed an effect of 50% or more. Effects have a minus sign here. Some of the results follow.

biological target: human ether-à-go-go-related gene (hERG) potassium channel (human, UniProt Q12809); test: primary screen, population patch clamp on CHO cells stably expressing hERG
Sequence (Q12809 whole entry, looked up): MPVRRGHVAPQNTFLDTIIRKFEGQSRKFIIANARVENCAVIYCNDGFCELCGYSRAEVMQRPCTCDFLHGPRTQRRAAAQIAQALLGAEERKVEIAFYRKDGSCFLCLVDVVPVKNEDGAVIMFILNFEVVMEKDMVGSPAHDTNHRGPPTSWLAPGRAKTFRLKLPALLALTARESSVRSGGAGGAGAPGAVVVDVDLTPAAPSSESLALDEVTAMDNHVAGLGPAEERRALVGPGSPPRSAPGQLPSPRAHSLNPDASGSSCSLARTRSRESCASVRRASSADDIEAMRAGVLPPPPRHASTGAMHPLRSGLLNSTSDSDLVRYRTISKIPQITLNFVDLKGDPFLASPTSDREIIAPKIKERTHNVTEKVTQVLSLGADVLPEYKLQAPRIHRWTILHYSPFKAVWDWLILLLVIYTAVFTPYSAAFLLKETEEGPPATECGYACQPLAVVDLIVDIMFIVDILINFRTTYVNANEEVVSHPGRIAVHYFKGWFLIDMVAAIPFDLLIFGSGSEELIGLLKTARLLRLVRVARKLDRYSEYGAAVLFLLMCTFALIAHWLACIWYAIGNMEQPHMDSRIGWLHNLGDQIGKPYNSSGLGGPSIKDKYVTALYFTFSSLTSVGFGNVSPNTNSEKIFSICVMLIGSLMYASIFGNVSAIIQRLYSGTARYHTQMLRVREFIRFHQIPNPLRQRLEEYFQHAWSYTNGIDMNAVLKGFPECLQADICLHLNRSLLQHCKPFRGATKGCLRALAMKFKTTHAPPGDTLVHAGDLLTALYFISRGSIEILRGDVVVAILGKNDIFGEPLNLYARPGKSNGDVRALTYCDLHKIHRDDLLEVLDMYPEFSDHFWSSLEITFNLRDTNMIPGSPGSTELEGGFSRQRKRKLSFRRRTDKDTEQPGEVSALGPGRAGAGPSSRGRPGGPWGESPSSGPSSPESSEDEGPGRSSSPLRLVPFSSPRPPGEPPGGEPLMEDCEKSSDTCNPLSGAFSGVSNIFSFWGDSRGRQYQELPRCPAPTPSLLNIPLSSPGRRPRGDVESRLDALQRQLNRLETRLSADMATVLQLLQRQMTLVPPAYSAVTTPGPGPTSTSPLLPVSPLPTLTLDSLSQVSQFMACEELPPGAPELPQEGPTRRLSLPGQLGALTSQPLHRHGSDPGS

SMILES	hERG current change (%, negative = inhibition) at 1uM
O=C(CSc1nc2ccccc2nc1N1CCOCC1)N1CCN(c2ccccc2)CC1	6.99%
CN1/C(=C\C=C(/C#N)C(=O)Nc2ccc(Cl)cc2)C(C)(C)c2ccccc21	17.6%
COc1ccc2[nH]c(=O)c(CN(C(=O)c3cccnc3)c3ccccc3)cc2c1	16.1%
COc1ccccc1N(C)C(=O)c1cc(S(=O)(=O)N2CCc3ccccc32)cn1C	1.85%
Cc1cccc(CS(=O)(=O)c2ncc(Cl)c(C(=O)Nc3c(C)cccc3C)n2)c1	9.51%
COc1ccccc1-c1cc(C(=O)N2CCN(c3ccccc3)CC2)no1	5.04%
CC(C)CC(=O)NC(=S)Nc1nc(-c2ccccc2)cs1	15.9%
COc1cc(NC(=O)c2ccc(Cl)cc2Cl)ccc1NC(=O)c1cccs1	12.3%
CCn1cc(C(=O)N2CCOCC2)c(=O)c2cc(S(=O)(=O)N(C)C3CCCCC3)ccc21	13.6%
COc1ccc(CN(C(=O)CN2C(=O)C(C)Oc3ccccc32)C2CCCC2)c(OC)c1 (stereo not shown)	-0.0656%
CC(C)Cc1nnc(NC(=O)C23CC4CC(CC(C4)C2)C3)s1	13.8%
COc1cc(=O)n(C)c2c(OCC3OC(C)(C)OC3(C)C)cccc12 (stereo not shown)	6.93%
CCC1CCCCN1C(=O)CCS(=O)(=O)c1ccccc1 (stereo not shown)	11.2%
OC(COc1ccc(OCC(O)CN2CCN(Cc3ccccc3)CC2)cc1)CN1CCN(Cc2ccccc2)CC1 (stereo not shown)	6.14%
O=C(Cc1cn2ccsc2n1)Nc1nc2c(s1)CN(Cc1ccccc1)CC2	3.55%
O=C(Nc1ccc(Nc2ccccc2)cc1)c1ccccc1F	15.1%
CCOC(=O)C(=CNc1ccc(C(F)(F)F)cc1Cl)C(=O)OCC	9.93%
CN(C)S(=O)(=O)c1cc([N+](=O)[O-])ccc1N1CCCCCC1	9.36%
CC(C(=O)Nc1ccc2c(c1)OCO2)N1CCN(C)CC1.O=C(O)C(=O)O (stereo not shown)	14.8%
COC(=O)C(Cc1c[nH]c2ccccc12)N1CCS(=O)(=O)CC1 (stereo not shown)	10.3%
O=C(O)c1nccnc1C(=O)Nc1ccc(Cl)cn1	14.6%
O=C(O)CCSc1nnc(CNc2ccc(Cl)cc2)n1Cc1ccccc1	4.32%

SMILES	hERG current change (%, negative = inhibition) at 1uM
CCCNC(=O)CCCCn1c(=S)[nH]c2c([nH]c3ccc(OC)cc32)c1=O	10.3%
COc1ccc([C@@H]2[C@@H]3C(=O)N(C(C)(C)C)C(=O)[C@@H]3[C@]3(Cc4ccccc4)C(=O)N(c4ccc(Br)cc4)C(=O)N23)cc1	9.56%
COc1ccc(NC(=S)NCCCCCC(=O)C[N+](=O)[O-])cc1	12.5%
CC(Nc1nc2ncn(Cc3ccccc3)c2c(=O)[nH]1)C(=O)O (stereo not shown)	10.1%
CN(C)C(=O)c1cccn1-c1ncc(C(F)(F)F)cc1Cl	7%
O=C(CCNC(=O)c1ccc(Br)cc1)OCc1ccccc1Cl	-3.72%
O=C(CSc1ccccc1)NCC1(N2CCOCC2)CCCCC1	0.32%
COc1ccc(S(=O)(=O)N=Nc2c(O)[nH]c3ccccc23)cc1	17.7%
Cc1ccccc1OCCC(=O)OCC(=O)NC(=O)c1ccccc1	14.8%
Cc1cc(-c2ccccc2)n(-c2ccccc2)n1	12.1%
CSC(=NS(=O)(=O)c1ccc(C)cc1)SC	5.47%
COc1ccc(O)c(/C=N/N=C/c2cccc([N+](=O)[O-])c2)c1	12.8%
Cc1cc(=O)n2c3ccccc3n(CC(O)CN3CCCC3)c2c1C#N (stereo not shown)	-11.5%
CN(C)N1C(N)=C(C#N)C(c2ccc3c(c2)OCO3)C2=C1CC(C)(C)CC2=O (stereo not shown)	11.8%
CNCC1(c2ccccc2)CCCC1.Cl	17.8%
O=C(O)/C=C/c1cnc2ccccc2n1	15%
CC(C)(C)c1cc(C(=O)NN)n(Cc2ccc(Cl)cc2Cl)n1	16.3%
Nc1ccc(S(=O)(=O)N2CCOCCOCCOCCOCCOCC2)cc1	13.3%
Cc1cc(Cl)ccc1NS(=O)(=O)c1c(C)[nH]c(=O)[nH]c1=O	8.25%
Cn1c(=O)c2cc(S(=O)(=O)NC(C(=O)Nc3cccnc3)c3ccccc3)ccc2n(C)c1=O (stereo not shown)	3.7%
c1csc(C2Nc3ccccc3-c3nc4ccccc4n32)c1 (stereo not shown)	0.297%
CC(C)N1CCC2(CC1)N=C(c1ccc3c(c1)OCO3)CC(c1cc(Cl)ccc1O)N2 (stereo not shown)	-36.6%

SMILES	hERG current change (%, negative = inhibition) at 1uM
O=C(O[C@@H]1OC2COC(=O)c3cc(O)c(O)c(O)c3-c3c(cc(O)c(O)c3O)C(=O)O[C@@H]([C@H]1O)[C@@H]2O)c1cc(O)c(O)c(O)c1	9.41%
COc1ccc(NC(=O)N(Cc2ccc(C)cc2)Cc2cccnc2)c(OC)c1	-0.158%
Oc1cccc2nc3ccccc3nc12	11.9%
C=CCn1c(-c2ccncc2)n[nH]c1=S	14.5%
Cc1ccc(-n2ncc3c2CCCC3NC(=O)CCc2cnn(C)c2)cc1C (stereo not shown)	1.42%
COCCCNC(=O)c1ccccc1Sc1ccc(NC(C)=O)nc1	2.68%
Cc1c(Cc2ccccc2)c(=O)oc2c(C)c(OCc3nn[nH]n3)ccc12	14.2%
CC(C)Oc1ccc(Br)cc1/C=N\NC(N)=S	6.85%
Cc1ccc(C(=O)CC(=O)COc2ccc(Cl)cc2)cc1	7.1%
O=[N+]([O-])c1ccc(S(=O)(=O)NCC(c2cccnc2)N2CCOCC2)cc1 (stereo not shown)	5.9%
CCn1c(=O)c(C(=O)CC#N)c(N)n(Cc2ccccc2)c1=O	11.2%
COc1ccc(C(=O)NCc2nnc(SCC(=O)NCc3ccco3)o2)cc1	12.7%
COc1ccc(C2Nc3ccccc3C(=O)N2c2ccccc2)cc1CN1CCOCC1 (stereo not shown)	7.54%
Cn1nc(C(F)(F)F)c2cc(NC(=O)OCC(C)(C)C)sc21	7.95%
O=C(CCc1nnc(CCCCc2ccccc2)o1)NCCN1CCOC1=O	9.65%
CC(C)c1nc(SCC(=O)c2c[nH]c3ccccc23)n[nH]1	8.74%
COc1ccccc1NC(=O)CC(NC1CCCCC1)C(=O)O (stereo not shown)	11.9%
COc1cccc(CN(C)C(=O)CSc2nc3ccccc3[nH]2)c1OC	12%
Cc1ccc2cc(C#N)c(SCc3nnc(-c4ccccc4[N+](=O)[O-])o3)nc2c1	14.9%
Cc1cc(Cl)ccc1OCC(=O)OCC(=O)N1CCC(C(N)=O)CC1	11.6%
Cc1cc(C)c2c(=O)[nH]c(SCC(=O)Nc3cccc(S(=O)(=O)N(C)C)c3)nc2n1	-14.6%
CC(=O)N1CCc2cc(S(=O)(=O)CCC(=O)NCc3ccco3)ccc21	14%

SMILES	hERG current change (%, negative = inhibition) at 1uM
CCN(CC)c1ccc(/C=C2\SC(=O)N(C(C)C)C2=O)o1	12.7%
O=C(N/N=C/c1ccc[nH]1)c1ccccc1O	8.09%
CCCCC(O)(CCCC)C(=O)NN(C(=O)OCC)c1ccccc1	17%
Fc1ccc(CSc2nncn2NCc2ccc3c(c2)OCO3)cc1	7.43%
Cc1ccc(CN(Cc2ccccc2)C(=S)NCC(=O)NCc2cccnc2)o1	-14.9%
CN1CCC(N(C)S(=O)(=O)c2ccc(NC(=O)COc3cccc(Cl)c3)cc2)CC1	-2.07%
CC(C)(C)NC(=O)Cn1c(SCC(=O)N2CCCCCC2)nc2ccccc21	10.4%
O=C(CN1C(=O)NC(Cc2c[nH]c3ccccc23)C1=O)Nc1ccc(Br)cc1F (stereo not shown)	9.26%
CCN1C(=O)CC(N2CCC(Cc3ccccc3)CC2)C1=O (stereo not shown)	-3.34%
Cc1ccc(C)c(N2CCN(S(=O)(=O)c3cn(C)cn3)CC2)c1	0.309%
CCc1nc(SCC#N)c(C#N)cc1C	1.15%
CCC(=O)N(C)CCc1cc2c(c(OC)c1/C=N/NC(=O)c1ccc(Br)cc1)OCO2	0.468%
Cc1nc(NC(=O)c2ccc(OCC(C)C)cc2)sc1Cc1ccc2c(c1)OCO2	12.4%
COc1cccc(C2C(C(N)=O)=C(C)Nc3nc(-c4ccccc4Cl)nn32)c1 (stereo not shown)	5.59%
CC(OC(=O)c1ccccc1O)C(=O)Nc1cccc(Cl)c1 (stereo not shown)	7.22%
O=[N+]([O-])c1ccc(N2CCOCC2)cc1NCc1ccccc1	4.41%
N#Cc1c(N)nc2c3c(sc(=N)c2c1N)NC(=O)CC3c1c(F)cccc1Cl (stereo not shown)	-2.06%
O=C(CCSCc1ccccc1Cl)NC1CCCC1	8.88%
O=C(Nc1nc2n(n1)C(c1ccc(F)cc1)CC(c1ccccc1)N2)c1ccco1 (stereo not shown)	2.83%
Cc1nc2sc(C)c(C)c2c(=O)o1	8.39%
COCCNC(=O)CN1C2CCC1CC(O)(c1cccnc1)C2 (stereo not shown)	11.1%
CCC(=O)N1N=C2CC(C)(C)OCC2C1c1ccccc1 (stereo not shown)	11.7%
